# Hit rate of the full screen: of about 94,000 compounds, about 4,000 (4.3%) were called active. This list was built around the results that the source calls inconclusive (neither active nor inactive); the mix of calls is not that of the screen. The call rests on the fitted dose curve; in most records, active means well fitted inhibition curve with a large enough effect; inconclusive means small, poorly fitted or top-dose-only effect; inactive means no such curve, though single readings can be large or run the other way. Potencies of inconclusive entries are doubtful fits and often do not repeat.
# Experiment: Cytotoxic Profiling in NIH 3T3 Cell Line of Diverse Libraries Using Quantitative High-Throughput Screening; further: nearly all actives have a fitted effect of over 55% in size
# Settings: NIH 3T3 viability, CellTiter-Glo ATP luminescence, 48-72 h; series mostly up to 96.7 µM
# Outline: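 First NIH 3T3 cells are plated at 400 cells/well; next compound is pinned in; then plates incubate 48 or 72 hr at 37 °C; finally CellTiter-Glo is added and luminescence read after 10 min.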
# Potency means the concentration at half of the fitted maximal effect; tags describe the fitted curve by direction and shape.
row,Structure (SMILES),Potency
1,COc1cccc(Nc2cccc(CN3CCCC(C)(NC(C)=O)C3)c2)c1 (stereo unspecified),"inconclusive: 79.4 µM [inhibitor, partial curve]"
2,COc1ccc(-c2ccc3c(n2)CN(Cc2ccc(F)cc2)C(=O)CO3)cc1,"inconclusive: 56.2 µM [inhibitor, partial curve, poor fit]"
3,CCOc1cccc(CN2C[C@@H]3C(=O)N(Cc4ccc5c(c4)OCO5)C(=O)[C@@H]3C2)c1,"inconclusive: 50.1 µM [inhibitor, partial curve, poor fit]"
4,CCOc1cc(-c2nc3ccc(-c4ccc(OC)c(OC)c4OC)cc3o2)ccc1OC,inactive
5,Cc1ccc(NC(=O)CC2CCCN(c3cnn(CC4CC4)c(=O)c3)C2)c(C)c1 (stereo unspecified),inactive
6,COc1ccccc1-c1cn2c(n1)CO[C@@H](CNC(=O)c1ccc(Cl)cc1)C2,"inconclusive: 112 µM [inhibitor, partial curve, poor fit]"
7,COc1cccc(N2CCN(c3nc(C(=O)NCc4ccccc4F)cs3)CC2)c1,"inconclusive: 39.8 µM [inhibitor, partial curve, poor fit]"
8,COCc1nncn1C1CCN(C(=O)c2ccc(F)cc2F)CC1,inactive
9,Cc1ccc(S(=O)(=O)N2CCC(n3cnnc3C)CC2)c(C)c1,"inconclusive: 56.2 µM [inhibitor, partial curve, poor fit]"
10,Cc1ccccc1CNC(=O)c1cc2cn(C(C)C)cc2s1,"inconclusive: 56.2 µM [inhibitor, partial curve, poor fit]"
11,O=C(NCCCc1ccccc1)c1nc2sccn2c1-c1ccncc1,"inconclusive: 100 µM [inhibitor, partial curve, poor fit]"
12,O=c1c2nc(NCCOc3ccccc3)ccc2ncn1Cc1ccccc1,"inconclusive: 56.2 µM [inhibitor, partial curve, poor fit]"
13,COCCN1C(=O)c2ccccc2C(C(=O)Nc2cccc(OC)c2)C12CCCC2 (stereo unspecified),inactive
14,CNC(=O)N1CCC(N2CC(OCC3CC3)C23CCCCC3)CC1 (stereo unspecified),inactive
15,CN1c2cc(C(=O)NCc3ccc(Cl)cc3)ccc2C(=O)N2CCCCC21 (stereo unspecified),"inconclusive: 39.8 µM [inhibitor, partial curve, poor fit]"
16,Cc1noc2c(-c3cccnc3N(C)C)cc(-c3ccccc3)nc12,"inconclusive: 12.6 µM [inhibitor, full curve, poor fit]"
17,CO[C@H]1[C@H](NC(=O)c2cn(C)c3ccccc23)c2ccccc2C12CCNCC2,"inconclusive: 89.1 µM [inhibitor, single point]"
18,Cc1cc2c(c(=O)n(-c3ccccc3)c(=O)n2CC(=O)Nc2ccc3c(c2)OCO3)n1C,"inconclusive: 70.8 µM [inhibitor, single point]"
19,COc1cccc(-c2ccc(CN3CCCC(NC(=O)c4ccccn4)C3)cc2)c1 (stereo unspecified),"inconclusive: 50.1 µM [inhibitor, partial curve, poor fit]"
20,O=C(NCc1ccncc1)[C@@H]1C[C@@H](c2ccc(F)cc2)N(CCOc2ccccc2)C1,"inconclusive: 112 µM [inhibitor, single point]"
21,O=C1NCCOCCN(C(=O)c2ccncc2)[C@H]2CCC[C@@H]12,inactive

row,Structure (SMILES),Potency
1,COc1cc(NC(=O)N[C@H](C)c2onc(-c3ccccc3)c2C(=O)O)cc(OC)c1,"inconclusive: 126 µM [inhibitor, single point]"
2,O=C(Cc1c[nH]c2ncc(-c3ccccc3)cc12)Nc1cccnc1,active: 28.2 µM
3,O=C(Cc1c[nH]c2ncc(-c3cccnc3)cc12)N1CCN(c2ccccn2)CC1,"inconclusive: 56.2 µM [inhibitor, partial curve, poor fit]"
4,O=C(CC1CCCCN(Cc2ccccc2)C1=O)NC1CCCCCC1 (stereo unspecified),"inconclusive: 28.2 µM [inhibitor, full curve]"
5,CCC1c2nccn2CCCN1C(=O)COc1cccc(C)c1 (stereo unspecified),inactive
6,CNC1CCOc2ccccc21 (stereo unspecified),"inconclusive: 4.47 µM [inhibitor, full curve, poor fit]"
7,O=C(c1ccc(F)c(F)c1)N1CCC(n2cc(-c3nc(-c4ccccc4)no3)nn2)CC1,"inconclusive: 10 µM [inhibitor, full curve, poor fit]"
8,O=C(NCc1ccc2c(c1)OCO2)c1nc(-c2ccccc2)c2ccccn12,"inconclusive: 35.5 µM [inhibitor, partial curve, poor fit]"
9,CCCCCC(=O)Nc1nc2c(s1)C[C@@H]1[C@](C)(CO)[C@H](O)CC[C@@]1(C)[C@@H]2CC(=O)NC1CCCC1,"inconclusive: 50.1 µM [inhibitor, partial curve, poor fit]"
10,COc1cccc(CC(=O)N2CCC(c3n[nH]c(=O)n3-c3ccc(C)cc3)CC2)c1,active: 10 µM
11,COc1ccc2c(c1)CN(CC1CCCCC1)CC[C@H]1COC(=O)N21,inactive
12,O=[S+]1([O-])NC2(CCN(Cc3cccc4ccccc34)CC2)CNc2ccccc21,"inconclusive: 44.7 µM [inhibitor, partial curve, poor fit]"
13,Cc1ccc(-c2cn3cc(C(=O)NCC4CC4)nc3s2)cc1,inactive
14,O=C(NC1CCN(c2cc(-c3cccs3)[nH]n2)C1)c1ccc2[nH]ccc2c1 (stereo unspecified),"inconclusive: 70.8 µM [inhibitor, single point]"
15,COc1ccc(F)cc1-c1cccc(C(=O)NCCNC(=O)C(C)(C)C)c1,"inconclusive: 44.7 µM [inhibitor, partial curve, poor fit]"
16,COc1cccc(CN2CCNc3cnc(Nc4ccccc4)cc3C2)c1,"inconclusive: 79.4 µM [inhibitor, partial curve]"
17,O=C(NC1CCCC1)N1CC(Oc2cccc(-c3nc(-c4ccccc4)no3)c2)C1,"inconclusive: 31.6 µM [inhibitor, full curve, poor fit]"
18,COC(=O)c1ccc(NC(=O)N2CCC3(CC2)CC(N2CCCC2)CCO3)cc1 (stereo unspecified),inactive
19,NC1CC(c2cc(N3CCN(c4nnc(C(F)(F)F)s4)CC3)ncn2)C1 (stereo unspecified),"inconclusive: 39.8 µM [inhibitor, partial curve]"
20,CCN(Cc1ccccc1)C(=O)c1cc2c(N3CCCC3)nc(C)cn2n1,"inconclusive: 56.2 µM [inhibitor, single point]"
21,COc1cccc([S+](=O)([O-])N2CCn3cc(C(=O)Nc4ccc(Cl)cc4Cl)nc3C2)c1,"inconclusive: 70.8 µM [inhibitor, single point]"

row,Structure (SMILES),Potency
1,COc1cc(OC)cc(C(=O)NC2CCN(c3cc(-c4ccc(F)cc4)[nH]n3)C2)c1 (stereo unspecified),"inconclusive: 44.7 µM [inhibitor, partial curve, poor fit]"
2,COc1ccc(C(=O)N2CCC(Oc3cccc(F)c3)C2)cn1 (stereo unspecified),"inconclusive: 10 µM [inhibitor, partial curve, poor fit]"
3,CS(=O)(=O)c1ccc(CN2CCC[C@H]2c2nc(-c3ccc(-c4ccncc4)nc3)no2)cc1,"inconclusive: 50.1 µM [inhibitor, partial curve, poor fit]"
4,O=C(NCc1cccnc1)[C@@H]1C[C@@H](O)CN1C1CCN(C(=O)c2ccsc2)CC1,inactive
5,COc1ccccc1C(=O)N1CCC2(CC1)CN[S+](=O)([O-])c1cccnc1O2,inactive
6,COc1ccccc1-c1ccc(CN2CCC(NC(=O)Cc3ccccn3)C2)cc1 (stereo unspecified),"inconclusive: 50.1 µM [inhibitor, partial curve, poor fit]"
7,Cc1ccc(-c2cc3c(=O)n(CCNC(=O)C4CCCCC4)ccn3n2)c(C)c1,"inconclusive: 39.8 µM [inhibitor, partial curve, poor fit]"
8,COCCN1CCCCCC(O)c2cc(C(=O)NCc3ccc(F)cc3)ccc21 (stereo unspecified),"inconclusive: 44.7 µM [inhibitor, partial curve, poor fit]"
9,CCc1ccc(C(=O)N2CCC(Cc3nc(-c4ccc(F)cc4)no3)CC2)cc1,"inconclusive: 8.91 µM [inhibitor, partial curve, poor fit]"
10,O=C(NC1CCCc2c1[nH]c1ccc(F)cc21)c1ccc(Br)o1 (stereo unspecified),"inconclusive: 44.7 µM [inhibitor, partial curve, poor fit]"
11,COc1cccc(-c2cc(C(=O)N(C)CC#N)c3cnn(C)c3n2)c1,"inconclusive: 50.1 µM [inhibitor, partial curve, poor fit]"
12,CN(Cc1cccc(CCN)c1)Cc1cnn(-c2ccc(F)cc2)c1,active: 44.7 µM
13,O=C(NCc1ccco1)[C@@H]1Cc2nc[nH]c2CN1Cc1cc2ccccc2o1,"inconclusive: 112 µM [inhibitor, partial curve, poor fit]"
14,CN(C)C(=O)N1CCN(c2nccc(Nc3ccccc3Cl)n2)CC1,"inconclusive: 56.2 µM [inhibitor, partial curve, poor fit]"
15,COc1ccc(-c2noc(C(=O)N3CCCC3)c2[C@H](C)O)cc1,"inconclusive: 89.1 µM [inhibitor, partial curve, poor fit]"
16,CC1(C)[C@H]2CC[C@@H](CNC(=O)c3ccc4c(c3)OCO4)[C@@H]1C2,"inconclusive: 56.2 µM [inhibitor, partial curve, poor fit]"
17,O=C(c1ccc(N2CC3CC(C2)[C@H]2CCCC(=O)N2C3)nc1)N1CCN(c2cccc(Cl)c2)CC1 (stereo partly specified),"inconclusive: 50.1 µM [inhibitor, partial curve, poor fit]"
18,COc1cncc(Nc2cnc3ccc(-c4ccc(OC)c(OC)c4)nn23)c1,active: 20 µM
19,CC(C)NC(=O)c1cnc2c(c1)N(C(=O)Cc1cccc(C(F)(F)F)c1)CCC2,"inconclusive: 112 µM [inhibitor, partial curve, poor fit]"
